# From PubChem BioAssay (Tox21)
# Several values for one entry are separate records, joined by “and”; a condition that tells them apart may be missing. Identical values can stand only once. Inconclusive results, whose numbers are uncertain, are shown with a selection of clear calls. For some assays here: Potencies beside an inconclusive call are fits to weak or partial responses and may not hold up. Activity calls are given as the source filed them. Unless noted, calls follow the shape of the dose curve; as a rule, active = well fitted curve in the direction sought with a large enough effect in the repeat runs; inconclusive = weak or mixed curves; inactive = no such curve, though single readings can be large; an effect the other way counts as inactive or inconclusive.
# Assays:
# [1] = qHTS assay to identify small molecule antagonists of the glucocorticoid receptor (GR) signaling pathway - cell viability counter screen (AID 720693); conditions: GR-bla HeLa viability, CellTiter-Glo luminescence, 18 h, with 5 nM dexamethasone present; viability change, negative = cytotoxic: at 58.5 µM (top of the series) unless noted; also: nearly all actives have a fitted effect of over 55% in size; also: potency is read from the fitted curve at half-maximal effect; as to viability change, negative = cytotoxic: % is scaled to controls: 0 for no effect and ±100 for the full control effect
# [2] = qHTS assay for identifying genotoxic compounds that show differential cytotoxicity against isogenic chicken DT40 cell lines with known DNA damage response pathways - Rev3 mutant cell line (AID 743014); conditions: chicken DT40 Rev3-/- viability, CellTiter-Glo, 40 h; activity, negative = cytotoxicity: at 68.4 µM (top of the series); also: nearly all actives have a fitted effect of over 55% in size; also: potency is read from the fitted curve at half-maximal effect
# [3] = qHTS assay for identifying genotoxic compounds that show differential cytotoxicity against isogenic chicken DT40 cell lines with known DNA damage response pathways - Rad54/Ku70 mutant cell line (AID 743015); conditions: DT40 Rad54/Ku70 mutant viability, CellTiter-Glo, 40 h; activity change, negative = cytotoxicity: at 66.8 µM (top of the series); also: nearly all actives have a fitted effect of over 60% in size; also: potency is read from the fitted curve at half-maximal effect
# [4] = qHTS assay to identify small molecule antagonists of the thyroid receptor (TR) signaling pathway - cell viability counter screen (AID 743064); conditions: GH3.TRE-Luc viability, CellTiter-Fluor, 24 h; activity change, negative = cytotoxic: at 70.3 µM (top of the series) unless noted; also: potency is read from the fitted curve at half-maximal effect; nearly all actives have a fitted effect of over 50% in size
# Method in brief: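 In rat pituitary GH3.TRE-Luc reporter cells co-exposed to compound and 1 nM T3 for 23.5 h, cytotoxicity was assessed with CellTiter-Fluor in the same wells, read by fluorescence.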
# Aromatase (Homo sapiens) = Aromatase (Homo sapiens) (UniProt P11511); assay: qHTS assay to identify aromatase inhibitors (AID 743083); conditions: MCF-7 aro ERE, testosterone-driven ERE luciferase, 24 h; activity, negative = inhibition: at 70.3 µM (top of the series); also: potency is read from the fitted curve at half-maximal effect; nearly all actives have a fitted effect of over 55% in size
# [5] = qHTS assay to identify small molecule antagonists of the androgen receptor (AR) signaling pathway - cell viability counter screen (AID 743033; also: nearly all actives have a fitted effect of over 45% in size; also: potency is read from the fitted curve at half-maximal effect); conditions: AR-bla HEK293 viability, CellTiter-Glo luminescence, 16 h; activity change, negative = cytotoxicity: at 58.5 µM (top of the series) unless noted
# [6] = target: Androgen receptor (Homo sapiens) (UniProt P10275); assay: qHTS assay to identify small molecule antagonists of the androgen receptor (AR) signaling pathway (AID 743035; active = well fitted inhibition curve with a large enough effect in the signal ratio in the repeat runs, not every such curve was filed as active; inconclusive = weak or mixed curves, or effect the other way; inactive = no such curve, though single readings can be large or run the other way; the % refers to the signal ratio; also: potency is read from the fitted curve at half-maximal effect; as to activity change, negative = inhibition: % is scaled to controls: 0 for no effect and ±100 for the full control effect); conditions: HEK293 AR-UAS-bla, R1881-stimulated, beta-lactamase FRET, 16 h; activity change, negative = inhibition: at 58.5 µM (top of the series) unless noted
# Method in brief: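 Fluorescence from a beta-lactamase FRET substrate (LiveBLAzer B/G, 2 h, room temperature) measured inhibition of R1881-stimulated signaling in GeneBLAzer AR-UAS-bla HEK293 cells exposed to compound for 16 h at 37C.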
# [7] = target: Androgen receptor (Homo sapiens) (UniProt P10275); assay: qHTS assay to identify small molecule agonists of the androgen receptor (AR) signaling pathway (AID 743036; active = well fitted activation curve with a large enough effect in the signal ratio in the repeat runs, with a control signal flat, not every such curve was filed as active; inconclusive = weak or mixed curves, or effect the other way; inactive = no such curve, though single readings can be large or run the other way; the % refers to the signal ratio; also: potency is read from the fitted curve at half-maximal effect; as to activation: % is scaled to controls: 0 for no effect and ±100 for the full control effect); conditions: HEK293 AR-UAS-bla GripTite, beta-lactamase FRET ratio, 16 h; activation: at 62.4 µM (top of the series) unless noted
# Method in brief: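 Cell-based FRET reporter assay: HEK293 line with a UAS-beta-lactamase construct, compounds added in DMSO, 16 h exposure at 37C, then 2 h substrate step at room temperature and fluorescence intensity read.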
# [8] = qHTS assay to identify small molecule antagonists of the androgen receptor (AR) signaling pathway using the MDA cell line - cell viability counter screen (AID 743041; also: nearly all actives have a fitted effect of over 45% in size; also: potency is read from the fitted curve at half-maximal effect); conditions: MDA-kb2 viability, CellTiter-Fluor, 16 h, cells co-treated with R1881 androgen agonist; viability change, negative = cytotoxic: at 70.3 µM (top of the series) unless noted
# Method in brief: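 Viability counter screen run alongside the AR antagonist reporter: cells seeded 5 h before compound, R1881 added, 16 h incubation at 37C without CO2, fluorescent CellTiter-Fluor signal quantified.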
# [9] = target: Estrogen receptor (Homo sapiens) (UniProt P03372); assay: qHTS assay to identify small molecule antagonists of the estrogen receptor alpha (ER-alpha) signaling pathway (AID 743069; active = well fitted curve in the direction sought with a large enough effect in the signal ratio in the repeat runs, not every such curve was filed as active; inconclusive = weak or mixed curves, or effect the other way; inactive = no such curve, though single readings can be large or run the other way; the % refers to the signal ratio; also: potency is read from the fitted curve at half-maximal effect); conditions: HEK293 ER-alpha-UAS-bla, beta-lactamase ratio, antagonist mode; activity, negative = inhibition: at 69.4 µM (top of the series) unless noted
# Method in brief: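 Estradiol-stimulated ER-alpha-UAS-bla HEK293 cells, 18 hr compound exposure at 37C. LiveBLAzer B/G substrate, 2 hr RT, fluorescence read.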
# [10] = target: Estrogen receptor (Homo sapiens) (UniProt P03372); assay: qHTS assay to identify small molecule agonists of the estrogen receptor alpha (ER-alpha) signaling pathway (AID 743075; calls by dose curve;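 also: HEK293 GripTite cells with ER-alpha and UAS-driven beta-lactamase reporter; potency is read from the fitted curve at half-maximal effect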)
# [11] = target: Estrogen receptor (Homo sapiens) (UniProt P03372); assay: qHTS assay to identify small molecule agonists of the estrogen receptor alpha (ER-alpha) signaling pathway using the BG1 cell line (AID 743079); conditions: BG1Luc4E2 cells, ERE-luciferase agonist, 22 h; activation: at 70.3 µM (top of the series) unless noted; also: nearly all actives have a fitted effect of over 20% in size; also: potency is read from the fitted curve at half-maximal effect; as to activation: % is scaled to controls: 0 for no effect and ±100 for the full control effect
# [12] = qHTS assay to identify small molecule antagonists of the estrogen receptor alpha (ER-alpha) signaling pathway - cell viability counter screen (AID 743074; calls by dose curve;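 also: HEK293 cells carrying ER-alpha-UAS-bla reporter stimulated with 17beta-estradiol; nearly all actives have a fitted effect of over 45% in size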; also: potency is read from the fitted curve at half-maximal effect)
# [13] = qHTS assay to identify small molecule antagonists of the thyroid receptor (TR) signaling pathway (AID 743065); also: potency is read from the fitted curve at half-maximal effect; nearly all actives have a fitted effect of over 55% in size
# Method in brief: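 GH3.TRE-Luc rat pituitary cells carrying two TR response elements driving luciferase were plated for 4 h, given compound plus 1 nM T3 (final), and incubated 23.5 h at 37 C. ONE-Glo luminescence measured reporter inhibition; CellTiter-Fluor fluorescence tracked cytotoxicity.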
# [14] = qHTS assay for identifying genotoxic compounds that show differential cytotoxicity against isogenic chicken DT40 cell lines with known DNA damage response pathways - wild type cell line (AID 743012); conditions: DT40 wild type chicken cells viability, CellTiter-Glo, 40 h; activity change, negative = cytotoxicity: at 68.4 µM (top of the series) unless noted; also: % is scaled to controls: 0 for no effect and ±100 for the full control effect; nearly all actives have a fitted effect of over 60% in size
# Method in brief: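 Wild type DT40, 300 cells/well, ~0.5 h settle at 37 C/5% CO2; compounds in DMSO added by pintool; 40 h at 37 C/5% CO2; CellTiter-Glo, 30 min RT; luminescence.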
# [15] = system: thyroid hormone receptor (rat, GH3 cells); assay: qHTS assay to identify small molecule agonists of the thyroid receptor (TR) signaling pathway (AID 743066; calls by dose curve; also: potency is read from the fitted curve at half-maximal effect); conditions: GH3.TRE-Luc cells, TR agonist luciferase, 24 h; activation: at 83.9 µM (top of the series) unless noted
# [16] = qHTS assay to identify small molecule antagonists of the estrogen receptor alpha (ER-alpha) signaling pathway using the BG1 cell line (AID 743080; calls by dose curve;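 also: BG1 cells stimulated with 17beta-estradiol alongside compound; potency is read from the fitted curve at half-maximal effect; nearly all actives have a fitted effect of over 25% in size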); conditions: BG1Luc4E2 ERE-luciferase antagonist mode, luminescence; activity change, negative = inhibition: at 70.3 µM (top of the series) unless noted
# Method in brief: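 Luminescence from a 4×ERE-luciferase reporter in BG1-Luc-4E2 cells served as read-out. Cells, pre-cultured 5 days in stripped-serum phenol-red-free medium, were exposed to compound with 17beta-estradiol co-stimulation for 21.5 h at 37 C.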
# Tags tell the direction and shape of the fitted curve or compound fluorescence and quenching.
# UniProt P10275, sequence (P10275 whole entry, looked up): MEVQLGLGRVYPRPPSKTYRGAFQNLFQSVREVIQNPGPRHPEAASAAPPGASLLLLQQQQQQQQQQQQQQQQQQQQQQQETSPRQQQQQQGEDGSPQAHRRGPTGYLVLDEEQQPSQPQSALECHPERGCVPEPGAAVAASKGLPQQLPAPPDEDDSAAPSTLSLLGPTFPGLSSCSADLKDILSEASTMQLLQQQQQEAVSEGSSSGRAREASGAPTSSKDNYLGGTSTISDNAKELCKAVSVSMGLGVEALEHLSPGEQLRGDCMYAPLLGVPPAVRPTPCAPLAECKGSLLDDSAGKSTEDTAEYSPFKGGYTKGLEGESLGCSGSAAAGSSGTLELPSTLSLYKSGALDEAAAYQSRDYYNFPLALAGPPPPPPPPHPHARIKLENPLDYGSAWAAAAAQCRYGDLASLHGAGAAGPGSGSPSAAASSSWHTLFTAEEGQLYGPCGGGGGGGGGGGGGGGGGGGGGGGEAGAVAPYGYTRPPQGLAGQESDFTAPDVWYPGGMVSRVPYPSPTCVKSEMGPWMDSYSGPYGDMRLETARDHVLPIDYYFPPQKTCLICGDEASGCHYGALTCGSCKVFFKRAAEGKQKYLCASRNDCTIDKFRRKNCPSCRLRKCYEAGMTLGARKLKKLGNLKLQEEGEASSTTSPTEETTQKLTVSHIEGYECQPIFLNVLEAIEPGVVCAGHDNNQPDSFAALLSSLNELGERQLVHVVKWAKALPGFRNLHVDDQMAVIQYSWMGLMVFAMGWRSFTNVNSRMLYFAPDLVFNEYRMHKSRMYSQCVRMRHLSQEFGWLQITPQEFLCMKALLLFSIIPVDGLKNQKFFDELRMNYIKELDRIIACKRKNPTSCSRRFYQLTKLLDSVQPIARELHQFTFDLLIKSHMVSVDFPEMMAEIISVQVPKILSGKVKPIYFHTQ
# UniProt P03372, sequence (P03372 whole entry, looked up): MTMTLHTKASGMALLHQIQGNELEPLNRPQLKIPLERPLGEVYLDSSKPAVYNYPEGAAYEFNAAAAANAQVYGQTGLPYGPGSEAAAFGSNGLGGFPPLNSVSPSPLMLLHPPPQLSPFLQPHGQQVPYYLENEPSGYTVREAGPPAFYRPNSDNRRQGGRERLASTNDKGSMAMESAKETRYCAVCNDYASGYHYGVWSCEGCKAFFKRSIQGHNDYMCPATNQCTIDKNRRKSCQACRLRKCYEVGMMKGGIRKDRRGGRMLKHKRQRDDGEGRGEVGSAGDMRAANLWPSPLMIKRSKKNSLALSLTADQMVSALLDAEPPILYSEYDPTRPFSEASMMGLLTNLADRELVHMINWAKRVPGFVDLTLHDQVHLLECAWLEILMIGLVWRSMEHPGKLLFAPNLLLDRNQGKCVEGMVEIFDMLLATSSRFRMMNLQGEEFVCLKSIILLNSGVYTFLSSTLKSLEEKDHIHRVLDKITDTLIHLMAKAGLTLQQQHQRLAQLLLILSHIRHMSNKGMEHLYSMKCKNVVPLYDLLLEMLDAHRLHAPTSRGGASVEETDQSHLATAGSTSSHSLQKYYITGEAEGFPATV
# UniProt P11511, sequence (P11511 whole entry, looked up): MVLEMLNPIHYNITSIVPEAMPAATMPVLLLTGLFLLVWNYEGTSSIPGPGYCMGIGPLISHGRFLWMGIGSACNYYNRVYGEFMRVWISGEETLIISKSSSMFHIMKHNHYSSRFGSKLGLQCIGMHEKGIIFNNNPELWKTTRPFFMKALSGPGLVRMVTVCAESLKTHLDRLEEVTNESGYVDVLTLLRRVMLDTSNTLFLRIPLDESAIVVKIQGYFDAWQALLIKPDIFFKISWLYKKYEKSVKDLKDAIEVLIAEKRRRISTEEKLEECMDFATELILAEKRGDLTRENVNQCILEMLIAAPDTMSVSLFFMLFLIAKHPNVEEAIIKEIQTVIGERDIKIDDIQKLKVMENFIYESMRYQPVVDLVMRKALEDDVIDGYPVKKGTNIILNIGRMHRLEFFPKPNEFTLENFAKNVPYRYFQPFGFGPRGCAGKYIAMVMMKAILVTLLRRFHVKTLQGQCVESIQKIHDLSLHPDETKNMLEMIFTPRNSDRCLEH
compound,measurement,setting,value
C=CCCC(=O)/C=C/C1C(C)=CCCC1(C)C (configuration not stated),Potency,[1],inactive
same,Potency,[2],"inconclusive: 68.6 µM [cytotoxic, single point]"
same,Potency,[3],"inconclusive: 61.1 µM [cytotoxic, partial curve, poor fit]"
same,Potency,[4],"inconclusive: 68.6 µM [cytotoxic, single point]"
same,Potency,Aromatase (Homo sapiens),"inconclusive: 61.1 µM [inhibitor, single point]"
COc1ccc(C(=O)/C(Br)=C\C(=O)O)cc1,Potency,[1],"inconclusive: 54.9 µM [cytotoxic, single point]"
same,Potency,[3],"inconclusive: 26.6 µM [cytotoxic, partial curve, poor fit]"
same,Potency,[5],"inconclusive: 24.5 µM [cytotoxic, partial curve, poor fit]"
same,Potency,[6],inconclusive: 49 µM
same,"activity change, negative = inhibition",[6],inconclusive: -60.8%
same,Potency,[7],"inconclusive: 8.71 µM [activator, full curve]"
same,activation,[7],inconclusive: 24.5%
same,Potency,[8],"inconclusive: 29.8 µM [cytotoxic] and inconclusive: 68.6 µM [cytotoxic, single point]"
same,Potency,[4],"inconclusive: 33.5 µM [cytotoxic, single point]"
same,Potency,[9],"inconclusive: 7.56 µM [activator, partial curve] and inconclusive: 49 µM [fluorescent, single point]"
same,Potency,[10],"inconclusive: 6.01 µM [falling, partial curve, poor fit]"
same,activation,[11],inconclusive: 11.9% [phenotype inactive]
same,Potency,Aromatase (Homo sapiens),"inconclusive: 29.8 µM [inhibitor, single point]"
O=S(=O)(O)c1ccc2nc(-c3ccccc3)[nH]c2c1,Potency,[1],"inconclusive: 12 µM [cytotoxic, partial curve] and active: 20.8 µM"
same,Potency,[2],"inconclusive: 23.7 µM [cytotoxic, partial curve, poor fit] and inconclusive: 58.2 µM [cytotoxic, partial curve]"
same,Potency,[3],"inconclusive: 26.6 µM [cytotoxic, partial curve, poor fit]"
same,Potency,[5],"inconclusive: 20.8 µM [cytotoxic, partial curve]"
same,Potency,[12],"inconclusive: 10.7 µM [cytotoxic, partial curve, poor fit] and inconclusive: 18.6 µM [cytotoxic, partial curve]"
CSc1ccc(/C=C2/C(C)=C(CC(=O)O)c3cc(F)ccc32)cc1,Potency,[1],"inconclusive: 26.8 µM [cytotoxic, single point]"
same,Potency,[2],inactive
same,Potency,[3],inactive
same,Potency,[5],"inconclusive: 26.8 µM [cytotoxic, single point]"
same,Potency,[6],inactive
same,Potency,[7],"inconclusive: 9.52 µM [rising, partial curve]"
same,Potency,[4],"inconclusive: 0.119 µM [rising, single point]"
same,Potency,[13],"inconclusive: 33.5 µM [inhibitor, single point]"
same,Potency,[9],"inconclusive: 10.7 µM [fluorescent, partial curve]"
same,Potency,[12],"inconclusive: 1.34 µM [rising, full curve, poor fit]"
C=CC(=O)OCCOCCOCC,Potency,[1],"inconclusive: 54.9 µM [rising, single point]"
same,Potency,[14],inactive
same,Potency,[12],inactive
C/C=C1/C(=O)C[C@H]2[C@@H]3CCC4=CC(=O)CC[C@]4(C)[C@H]3CC[C@]12C,Potency,[1],"inconclusive: 61.5 µM [rising, partial curve, poor fit]"
same,Potency,[3],active: 19.3 µM
same,Potency,[5],"inconclusive: 27.5 µM [cytotoxic, partial curve, poor fit]"
same,Potency,[13],active: 9.66 µM
CCCCCC/C=C\CCCCCCCC(=O)O,Potency,[1],inconclusive: 54.9 µM [cytotoxic]
same,Potency,[2],inactive
same,Potency,[4],"inconclusive: 0.243 µM [rising, single point]"
CN1C(C(=O)Nc2ccccn2)=C(O)c2ccccc2S1(=O)=O,"viability change, negative = cytotoxic",[1],inconclusive: -5.02% [at 27 µM]
same,Potency,[2],inactive
same,Potency,[5],inactive
same,Potency,[15],"inconclusive: 12.7 µM [activator, partial curve, poor fit]"
same,Potency,[9],"inconclusive: 49.4 µM [activator, partial curve]"
Clc1cc(Cl)c(Cl)nc1Cl,Potency,[1],inactive
same,Potency,[14],inactive
same,Potency,[12],"inconclusive: 17.4 µM [rising, partial curve, poor fit]"
CCCCC(CC)COP(=O)(O)OCC(CC)CCCC (configuration not stated),Potency,[1],"inconclusive: 61.8 µM [cytotoxic, single point] and inconclusive: 61.6 µM [cytotoxic, single point]"
same,Potency,[2],inconclusive: 68.6 µM [cytotoxic]
same,Potency,[3],"inconclusive: 68.7 µM [cytotoxic, single point] and inconclusive: 68.6 µM [cytotoxic, single point]"
same,Potency,[5],"inconclusive: 49.1 µM [cytotoxic, partial curve, poor fit]"
same,Potency,[8],inactive
same,Potency,[4],"inconclusive: 68.6 µM [cytotoxic, partial curve, poor fit]"
same,Potency,[13],"active: 61.3 µM and inconclusive: 68.6 µM [inhibitor, single point]"
same,Potency,[12],"active: 39 µM and inconclusive: 30.9 µM [cytotoxic, single point]"
same,Potency,[11],"inconclusive: 61.1 µM [inhibitor, partial curve]"
same,activation,[11],inconclusive: 4.39% [phenotype inactive]
same,Potency,[16],"inconclusive: 34.4 µM [falling, partial curve, poor fit]"
